Measured values from patent US20220378043A1, “BIOFILM TREATMENT AGENT AND BIOFILM TREATMENT METHOD” (SEIKO PMC CORPORATION, priority 2019, published 2022).
At least one read-out could not be matched to a standard name with certainty.

Key:
[1] = test system: Pseudomonas aeruginosa (deposit number: NBRC106052 strain) biofilm; experiment: Evaluation of biofilm-removing effect (crystal violet staining of pre-formed biofilm); assay type: cell-based; details: single substance at Table 2 concentration (alcohols 1,000 ppm, DBNPA 9.75 ppm), less than MIC, pH 7.0, 3.5 hours contact with 17 hour biofilm
From the text: In the present invention, the biofilm-removing effect is an action of removing biofilms formed by bacteria. Examples of methods for evaluating an effect of removing substances to be evaluated include a method for comparing the amount of biofilm formed after bringing the substance to be evaluated into contact with a biofilm formed through culturing bacteria for a certain period of time with the amount of biofilm (control) formed after the elapse of a certain period of time without the biofilm being brought into contact with the substance to be evaluated. In this case, when the amount of biofilm formed is smaller than that of the control, it can be determined that the substance to be evaluated has a biofilm-removing effect.
(i) A triptic soy broth (TBS, Bacto: manufactured by Difco Laboratories) medium having a final concentration of glucose of 1% is used for Pseudomonas aeruginosa (deposit number: NBRC106052 strain) which is a representative strain of biofilm-forming bacteria to prepare a preculture solution under the condition of 120 rpm.
(ii) The preculture solution of which the turbidity (OD) is adjusted to 0.1 is diluted with a TSB medium so that the final concentration is 0.000005% (v/v), and 2 mL of the diluent is dispensed into a 12-well plate. Here, the following OD (turbidity) is a value which is measured with a spectrophotometer (iMark Microplate Reader: manufactured by Bio-Rad Laboratories, Inc.) at a wavelength of 630 nm in which distilled water is used as a blank.
(iii) Culture is performed under the conditions of 37° C. and 130 rpm for 17 hours to form a biofilm.
(iv) The culture solution in each well is removed and each well is rinsed twice with distilled water.
(v) A substance to be evaluated is added to a medium at an appropriate concentration less than the MIC of the target substance, and the pH of the medium is adjusted to 7.0 with hydrochloric acid or sodium hydroxide. 2 mL of a sterile medium (pH=7.0) is added to each well to be used as a negative control.
(vi) Each well is shaken at the same temperature as that of the preculture for 3.5 hours at 130 rpm, the biofilm is brought into contact with the medium containing the substance to be evaluated, and then, the medium in each well is removed, and each well is rinsed twice with distilled water.
(vii) 2 mL of an aqueous crystal violet solution (0.4 w/v %, 20 w/v % methanol) is added to the biofilm adhering in each well, allowed to stand for 2 minutes, and allowed to stain, and then, the stained biofilm is rinsed three times with distilled water, and the aqueous crystal violet solution which has not been bound to the biofilm is removed.
(viii) 2 mL of ethanol is added to each well and allowed to stand for 1 hour to elute crystal violet from the stained biofilm, and the absorbance is measured. Here, the following absorbance is a value which is measured with a spectrophotometer (iMark Microplate Reader: manufactured by Bio-Rad Laboratories, Inc.) at a wavelength of 595 nm in which distilled water is used as a blank.
(ix) Regarding the absorbance of the negative control and each substance to be evaluated, absorbances measured for 4 wells are taken as an average value, and the removal rate of each biofilm is calculated from the following calculation equation.
Biofilm removal rate (%)={1-(absorbance of substance to be evaluated/absorbance of negative control)}×100
The biofilm-removing effect and the biofilm formation-inhibiting effect of each of the substances to be evaluated shown in Table 1 were confirmed according to the evaluation methods specified in the present invention using each biofilm treatment agent containing each substance to be evaluated as a biofilm treatment agent component. In addition, evaluation results of the biofilm-removing effect and the biofilm formation-inhibiting effect of each aromatic monohydric alcohol alone are shown in […]

[2] = test system: Pseudomonas aeruginosa (deposit number: NBRC106052 strain) biofilm; experiment: Evaluation of biofilm formation-inhibiting effect (crystal violet staining); assay type: cell-based; details: single substance at Table 2 concentration (alcohols 1,000 ppm, DBNPA 9.75 ppm), less than MIC, pH 7.0, culture 37° C. 6 hours

| SMILES | Removal effect (removal rate %) [1] | Formation-inhibiting effect (formation inhibition rate %) [2] |
| --- | --- | --- |
| CCCCCO [Comparative Example 1, 1-Pentanol] | 16% | 11% |
| OCc1ccccc1 [Example 1, 1-Phenylmethanol] | 45% | 47% |
| OCCc1ccccc1 [Example 3, 2-Phenylethanol] | 41% | 48% |
| OCC=Cc1ccccc1 [Example 6, Cinnamyl alcohol] | 52% | 72% |
| OCC(CO)c1ccccc1 [compound 2, 2-Phenyl-1,3-propanediol] | 16% | 18% |
| N#CC(Br)(Br)C(N)=O [compound 4, 2,2-dibromo-3-nitrilopropionamide] | 14% | 2% |
